These results are taken from PubChem BioAssay (NCATS).

The list shows a part of the results. The main result of the screen is listed elsewhere. These columns were measured beside it and carry no call. The list favours compounds with an active or inconclusive main result. Words in brackets tell the shape of the fitted curve; partial curves, single points and poor fits give uncertain potencies.
Tags describe the fitted curve by direction and shape.

One test in a line: Cell-based coincidence reporter assay to measure PMP22 gene transcription in S16 Pmp22-F2sN cells - Confirmatory screen (AID 1508646). The note with it: S16 Schwann cells Pmp22-F2sN, dual luciferase, 24 h; measured here: FLuc reporter channel. In a few lines:
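Coincidence reporter read as sequential FLuc then NLuc luminescence (Nano-Glo Dual-Luciferase, 10 min each). Engineered S16 Pmp22-F2sN Schwann cells, 500-1,000 per well in DMEM/10% FBS, were exposed to compounds for 24 h, 37C.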
Background: Reporter assays use an easily measured gene product as a stand-in for the process of interest.
Consider `Cc1ccccc1Cn1nnc2c(=O)[nH]c(C3CCN(C(=O)c4ccc(F)cc4)CC3)nc21`, for which the AC50 (commonly the concentration at which the activity in the assay is half-maximal) was 21.7 µM [falling, partial curve].

In the case of `CCc1ccc(N2C(=O)CSC23C(=O)N(Cc2cccc(OC)c2)c2ccccc23)cc1` (stereo not given), the AC50 was 34.3 µM [falling, single point].

Turning to `Cc1c(C(=O)OC2CCCCC2)[nH]c2c1C(=O)CC(c1ccccc1Cl)C2` (stereo not given), the AC50 is 15.3 µM [falling, partial curve, poor fit].

For the compound `O=C(Cn1ncc2c([nH]c3ccccc32)c1=O)Nc1cccc(C(F)(F)F)c1`, the AC50 was 24.3 µM [falling, partial curve, poor fit].

On to `COCCN1Cc2cccc(C(=O)Nc3ccc(Cl)cc3Cl)c2C1=O`, for which the AC50 was 15.3 µM [falling, full curve, poor fit].

Regarding `CCN(CC)S(=O)(=O)c1ccc(C(=O)NCCSc2c(-c3ccc(OC)cc3)[nH]c3ccccc23)cc1`, the AC50 was 0.0039 µM [falling, single point].

`CCOc1ccc(CN2CCc3nc(N4CCN(c5ccccc5OC)CC4)ncc3C2)cc1OC`: the AC50 is 21.7 µM [falling, partial curve, poor fit].

In the case of `Cc1cccc(C(=O)Nc2cccc(C(=O)OCc3cc(=O)n4nc(C(C)C)sc4n3)c2)c1`, the AC50 was 0.769 µM [rising, full curve, poor fit].

On to `O=C(NCCC1=CCCCC1)c1ccc2c(c1)N(Cc1ccccc1)C(=O)c1ccccc1S2=O` (stereo not given), for which the AC50 was 15.3 µM [falling, partial curve].

Consider `Cc1c(Cl)cccc1N1C(N)=C(C#N)C(c2cc(CN3CCOCC3)cs2)C2=C1CCCC2=O` (stereo not given), for which the AC50 was 19.3 µM [falling, partial curve].

In the case of `COc1ccc(-c2cc3nc(C)c(CCC(=O)N4CCN(c5cc(C)ccc5C)CC4)c(C)n3n2)c(OC)c1`, the AC50 is 19.3 µM [falling, partial curve, poor fit].

Turning to `O=C(c1c2c(nc3ccccc13)C(=O)N(C1CCCCC1)C2)N1CCN(c2ccc(F)cc2)CC1`, the AC50 was 48.5 µM [falling, single point].

With `Clc1ccc(-c2noc3ncnc(N4CCCCC4)c23)cc1`, the AC50 is 19.3 µM [falling, partial curve].

Consider `CCN(C(=O)CSc1nc(-c2ccccc2)no1)c1cccc(C)c1`, for which the AC50 was 24.3 µM [rising, single point].

For `COc1ccc(-c2noc(CSc3nnc(C)n3-c3ccc(C)cc3)n2)cc1OC`, the AC50 was 6.11 µM [falling, partial curve, poor fit].

Consider `COCCNC(=O)c1cccc(Nc2nc3ccccc3n3nnnc23)c1`, for which the AC50 is 9.68 µM [falling, full curve].

As to `COc1ccc(OC)c(NC(=O)Cn2c(=O)c3cccn3c3ccccc32)c1`, the AC50 was 17.2 µM [falling, partial curve, poor fit].

Regarding `COCCCNC(=O)c1ccc(Cn2c(=O)c3ccccc3n(Cc3ccc(Cl)cc3)c2=O)cc1`, the AC50 is 15.3 µM [falling, partial curve, poor fit].

On to `Cc1nn2c(=O)cc(COC(=O)c3ccccc3NC(=O)c3cccs3)nc2s1`, for which the AC50 is 15.3 µM [rising, partial curve, poor fit].

As to `CCC(C)n1c(=N)c(C(=O)NC2CCCC2)cc2c(=O)n3ccccc3nc21` (stereo not given), the AC50 was 19.3 µM [falling, partial curve, poor fit].

The test is the same for the next values; noted with them: S16 Schwann cells Pmp22-F2sN, dual luciferase, 24 h; measured here: NLuc reporter channel.
With `COc1ccc(CN2CCN(Cc3cc(=O)oc4cc(C)ccc34)CC2)c(OC)c1OC`, the AC50 was 17.2 µM [falling, partial curve, poor fit].

As for `COCCNc1nc2c(c(=O)n(C)c(=O)n2C)n1Cc1c(F)cccc1Cl`, the AC50 is 19.3 µM [falling, partial curve].

For the compound `CCCCN(Cc1cc2ccccc2[nH]c1=O)C(=O)c1cccc(Cl)c1`, the AC50 was 8.62 µM [rising, partial curve, poor fit].

Take `Cc1cccc(/C=C(\C#N)c2nc3ccccc3c(=O)[nH]2)c1`: the half-maximal activity concentration (AC50) was 0.544 µM [rising, single point].

In the case of `Cc1cccc(N2CCN(C(=O)C3CCN(S(=O)(=O)c4ccc5c(c4)oc(=O)n5C)CC3)CC2)c1C`, the AC50 was 2.73 µM [falling, partial curve, poor fit].

On to `COc1ccc(N2CCN(C(=O)c3ccc4c(c3)N(Cc3ccc(F)cc3)C(=O)c3ccccc3S4=O)CC2)cc1` (stereo not given), for which the AC50 was 4.85 µM [falling, full curve].

With `O=C(NCc1ccccc1Cl)C1CCN(S(=O)(=O)c2ccc3c(c2)CCCN3C(=O)C2CCC2)CC1`, the AC50 is 38.5 µM [rising, single point].

As to `COc1ccc(OC)c(CCNc2ncnc3onc(C)c23)c1`, the AC50 is 24.3 µM [falling, partial curve, poor fit].

With `COc1cc(C2C(C(=O)OC(C)C)=C(C)N=C3SCCC(=O)N32)ccc1OCc1ccccc1` (stereo not given), the AC50 was 4.32 µM [falling, single point].

For `Cc1cc(C)cc(NC(=O)c2ccc3oc(=O)c(S(=O)(=O)c4ccc(F)cc4)cc3c2)c1`, the AC50 is 27.3 µM [falling, partial curve, poor fit].

Turning to `Cn1c(-c2cccc(Br)c2)cnc1NCc1cccc(F)c1`, the AC50 was 24.3 µM [falling, partial curve, poor fit].

Turning to `COc1ccc2nc(NC(=O)c3nc(S(=O)(=O)Cc4ccc(C)cc4)ncc3Cl)sc2c1`, the AC50 is 30.6 µM [rising, partial curve, poor fit].

Regarding `CCOc1ccc(/C=C/c2nc(C#N)c(NCc3ccccc3)o2)cc1`, the AC50 was 19.3 µM [falling, partial curve, poor fit].

As for `O=C(NCCSc1c[nH]c2ccccc12)c1ccccc1Cl`, the AC50 is 15.3 µM [rising, partial curve, poor fit].

For `Cc1ccc(F)cc1NC(=O)CSc1nc(-c2cccs2)cc(C(F)(F)F)n1`, the AC50 is 34.3 µM [falling, partial curve, poor fit].

With `Cc1cccc(NC(=O)c2sc3nc4c(cc3c2N)CCCCCC4)c1C`, the AC50 was 9.68 µM [falling, partial curve, poor fit].

For the compound `Cc1ccc(Nc2cc(C(=O)NC3CCCC3)c3ccccc3n2)cc1C`, the AC50 was 21.7 µM [falling, partial curve].

On to `CCOc1ccc(C(=O)Nc2ccc3nc(SCCOc4ccccc4)sc3c2)cc1`, for which the AC50 is 30.6 µM [falling, partial curve, poor fit].

In the case of `COc1ccc(N(C(=O)c2cc(OC)c(OC)c(OC)c2)S(=O)(=O)c2ccc(C)cc2)cc1`, the AC50 was 2.43 µM [falling, full curve, poor fit].

For `CCN1CCN(c2ccc(NS(=O)(=O)c3c(C)nc4sccn4c3=O)cc2Cl)CC1`, the AC50 is 6.11 µM [falling, full curve, poor fit].
